# Assay results reported in the supplement of paper PMC12632987.
# In all, about 4,500 sequences were measured (“median log2 fold change of GCK-ALFA target abundance (FLAG IP / Myc IP barcode read proportion)”: median about 0.078, lowest 2% from about -0.6 on). The list shows a part of the results.
# B1: GBRAP_160_4778 (protein)
# chain: SEKVEELKKSIEEAKEEILESIDTESPEETIIVVKGETGLILAEAYELEIDNDELEDALDEIGDELIEEMKKNKNASKEELKKIVEEYTEKALKKIEELT
# B2: GBRAP_128_3304 (protein)
# chain: MNEEAIKKAKELAEKMVEADVEEAAEITKQIVELMAKLSPEEREIVAEIMEEKFKELDAEKLDAVADVLREQRPKLDPETANLVAGLEVEALNEAEEKEE
# B3: GBRAP_184_5338 (protein)
# chain: KTLEVHIPNASLEEVKAALAAELRRAAAEGAALTVTIDAEGYSTEELEELLRWIGEEAKRLGLKDVTVGIDQEVNEEDADRLLEIADEYGIRLTLALSDE
# B4: GBRAP_128_3580 (protein)
# chain: SVEEVKERVRRLLEEMKTADPERRKAIAREIAEEFTKLSLEEAEAAAETIEELLPELSAEDLEILADALREARPKADPEHANLIADVQVAALNEALEKEE
# B5: GBRAP_52_6079 (protein)
# chain: MEEKIKEIAEKIVEAIKAGDLEKALELAKKAIKELSIEEIKEMLKLAAKKVAELGEEEHERFVELLDEVYDLMLEEGISEEDALLIVGDAEAALAKEVAA
# B6: GBRAP_128_3499 (protein)
# chain: SMEEAVEETKELMDKIAEASPEETRELTKELVELIASVNEEVAEAMADAVIEKLPELSAEALEVVADTLEELRPKVNPFVANLLADIQVEALNRLEELEE
# B7: GBRAP_78_6578 (protein)
# chain: EVEEEIDKAIEHLGEARKLARELPEEERNELLYLIVEAESYLLESEENGFDLEYLEEARKHVKEAIELVEKIDHPVAAKIREELEKALEHLEKAIELVKK
# B8: GBRAP_83_6934 (protein)
# chain: AEEITVVANSDTIEEAFEIAIDLHKEEGLKVTLEVSITREDIPLLLEEFEKLAEAGVDVELEILLTGATEEEAEELKKKLLEIAEKYGVKAEVEVELVEP
# B9: GBRAP_52_6096 (protein)
# chain: SAELLEEYARRLVEAARAGDVERATAILLEAVESLSDEEFLEMLRLAAELAAKLPADELERVTEVFLEALDRVAEETGREELMDLAAAEFAAIAYAALQA
# B10: GBRAP_139_3691 (protein)
# chain: SELEEKLEEGRRLTREAVEKGRPALIRLAEFLVSLSEEEREKVAEAIGRELLPLPYDEAEKLFEELIEILLEEFGDEDTAEIVEAAANRTLAEIAVREEA
# B11: GBRAP_184_5161 (protein)
# chain: KVLEFTLEAKNKEEVEEKLEEIREEAKKTKGDLYVILRLENPTKEMLRLILETLGEILEEGLAKNVVLGIENDLDEEMIDFVLELADEKGVRVVVAIPEE
# B12: GBRAP_184_5059 (protein)
# chain: KVFEEVIEAENLEELEEKLKELEEKVKNHKGDLIVLVKVPEFTKEMVETLMARLKEILDKGYASSVTVGLDGKMSEEVRDLAIELADKAGVKLTLALEEE
# B13: GBRAP_128_3566 (protein)
# chain: STAELVARARELLERIKASGPEEARALARELAALIAAASPEAREAIVETILALLPELTPEQLDILADVFREARPTADPATAEALAEIEVEALNVREEKEE
# B14: GBRAP_74_6552 (protein)
# chain: SEELKKEIKKAAEAGDADKLIKLAEEAAEKGNLEALKVALLELAKAAVKAAEAGDEETLEKLIEKIVELLEKIDDLDLSDETLDAIAAAIKAAHELELAK
# B15: GBRAP_80_6843 (protein)
# chain: AAAALAAARAALYAALPEAAPLVDEVIALARELGVPDSVIAELVAALAELAAADPALAAALLEELLADLRELKEEGRTDEAEAVVRGYAGEALLAAEELE
# B16: GBRAP_9_7183 (protein)
# chain: TAEAKQKILENAKEEAELALEVTPEDKKAAIAAAVKEMLDELTALVADPNTTLEELLKALEKGAERIKELAEKELDPETARQIEAILDTAILYAEEIVEE
# B17: GBRAP_9_7111 (protein)
# chain: LADLAAKFKAIVKDLEEELKKVVPEEVKPTVDKGTAAILAAIDAAAADPTVTKEQLLATTKALLAALLKELKAKTTPEVAAAVETEILTAEVEIEEAAEE
# B18: GBRAP_184_5364 (protein)
# chain: EVENLSIDAETAEEVEEKLAAARDEIKASGKPTNLFLFLKNADLETFEKGAKLLAELKAEGLIKRGTIVLDDERTEEEVDKLVKIADKYGVNLVVALKDE
# B19: GBRAP_128_3441 (protein)
# chain: SQEELLKKAFELIDEIVKSDVETAKELTKKLAEVLKELNEEGRDKVVEYFEEKAKELSEEKLEAVEDALREEIPKADPLTANYLAEMAVIAGERILELEE
# B20: GBRAP_184_5138 (protein)
# chain: KTLNASIEAKTVEEAIEQAKKAVEEAKKKNAKLNLFVFADGLSVEEIKELMEEIKKIIEESGLKDANVTLVVTADEEEADKIIEIADELGIRVVVALEEE
# B21: GBRAP_128_3591 (protein)
# chain: SVEEVRAWTRELLEKMKTADEATRKALADELAERFLTLSREEQEALAETVEELLPELSAEDLDILADAFEAAIPKADPETANLLADIAVAALNEAEEKEE
# B22: GBRAP_128_3207 (protein)
# chain: VDPETLAELRALADRVAETKTDEAIAAFAAAIAEALKAGKINLDALEEIVRYLGKKLSEEDIVRAMDAFRAALADVGADALAVALGELGEVLMEKEEEKE
# B23: GBRAP_74_6510 (protein)
# chain: MEELLAALREAAEAGDVDAVVELAREIIAEGSLEAIEEAARILVEFVERHLDELSPEELERLIDVLAELADRLLEEGGRSDVILAVADAMVALEERLAAL
# B24: GBRAP_52_5996 (protein)
# chain: AEARIRALAEELVAAVLAGDEERVRAILRRIAAELSDEEIVETVRLATRLLARDPRATLEDLARFIDIVEEVLEEEGKSDRLIADVLGAIAEAIAEVEAE
# B25: GBRAP_48_5830 (protein)
# chain: MKIDLEKLEALVKETVEEMKELYEEAKKEGLSDEDILKMIKAELGDLALELEEEGYTKAADYLLERENRDELAKKLLELFKEGKYEEAYEYLLKKLKEAE
# B26: GBRAP_139_3715 (protein)
# chain: SHLEELIKKAKELVEKYKDDIEKLAKELAELISEADDEGALAIARAAAEEMKDWSWEKWEEFIEKLSKELKKLGFSEDDVLAIEGVLEAVYAKHELAKLE
# B27: GBRAP_52_6327 (protein)
# chain: SEAKVEALAKELVAAIKAGDEAKAKALADEAVETLTSEEILKLAELVSKAVSTEDYETKVRAAKVFDYLADLVIEKRGDEDTAAEILGIYARTMYAAEQA
# B28: GBRAP_106_2560 (protein)
# chain: SKLDELKAFLAETLAEAEAQVPAVVDAIVSRLGEDRAEAEAVARAHAIAYVVNKLKEKMKELGINNPELVKAVEDTLRANRDADLATRIAAAKAVLEAKF
# B29: GBRAP_52_6299 (protein)
# chain: MREEAKKIAEEMVEAKKAGDEEKLEKLIKELVEKKSKEFIELVAEELAKMAANSNEEEQDIIFEVMEKLADELIEGGYDEAFANDLLAKVAKAAYENELK
# Target: GABARAP, O95166
# Sequence (O95166 whole entry, the tested form may be a part): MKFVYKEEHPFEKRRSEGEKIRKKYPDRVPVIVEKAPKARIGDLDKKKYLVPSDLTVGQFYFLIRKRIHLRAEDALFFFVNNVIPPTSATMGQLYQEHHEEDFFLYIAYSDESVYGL
# Test: median log2 fold change of GCK-ALFA target abundance (FLAG IP / Myc IP barcode read proportion) (log2 ratio); each designed protein is fused to an ALFA-tag nanobody in HEK293 cells to bring the named protein to FLAG-tagged glucokinase (GCK); Myc marks an untargeted standard; higher = target protein stabilised (more abundant)
# Conditions: target protein: 3xFLAG-MCP-GCK-ALFA reporter; HEK293 landing pad (RPLP)
# Procedure, shortened: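 Binders fused to an ALFA nanobody were recombined as a library into HEK293 landing-pad cells, which were induced with 2 μg mL^−1 doxycycline and then transfected to express a FLAG-tagged target and a Myc-tagged standard. After 48 h, circular RNA barcodes recovered by anti-FLAG and anti-Myc immunoprecipitation of lysates were reverse transcribed, amplified and sequenced. Each binder's target abundance is the median log2 ratio of FLAG to Myc barcode read proportions, from barcodes present at ≥10^−7 in both replicates, binders carrying ≥3 barcodes per replicate, a 10^−6 pseudocount and pooled replicates.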
row,Binder,median log2 fold change
1,B1,0.139
2,B2,0.302
3,B3,0.219
4,B4,0.102
5,B5,-0.103
6,B6,0.125
7,B7,0.067
8,B8,0.0136
9,B9,-0.198
10,B10,0.0916
11,B11,-0.0691
12,B12,0.19
13,B13,0.19
14,B14,-0.125
15,B15,-0.213
16,B16,0.387
17,B17,0.346
18,B18,-0.0701
19,B19,0.227
20,B20,0.234
21,B21,0.0868
22,B22,0.198
23,B23,-0.453
24,B24,-0.179
25,B25,0.224
26,B26,0.0358
27,B27,0.00852
28,B28,0.125
29,B29,0.0937
